Measured values published in patent US20130296417A1, “Theaflavin Compositions, Production, and Method to Control Physiological Disorders in Mammals” (JANGSU DEHE BIO-TECH CO., LTD., priority 2010, published 2013).

What was measured:
[1] = biological target: neuraminidase (NA) of influenza virus (H1N1) (Influenza A virus, UniProt P03468); test: Neuraminidase (NA) inhibitory activity, fluorogenic substrate 4-MUNANA (Example I)
[2] = system: Influenza virus A/PR/8/34 (H1N1)

UniProt P03468, sequence (P03468 whole entry): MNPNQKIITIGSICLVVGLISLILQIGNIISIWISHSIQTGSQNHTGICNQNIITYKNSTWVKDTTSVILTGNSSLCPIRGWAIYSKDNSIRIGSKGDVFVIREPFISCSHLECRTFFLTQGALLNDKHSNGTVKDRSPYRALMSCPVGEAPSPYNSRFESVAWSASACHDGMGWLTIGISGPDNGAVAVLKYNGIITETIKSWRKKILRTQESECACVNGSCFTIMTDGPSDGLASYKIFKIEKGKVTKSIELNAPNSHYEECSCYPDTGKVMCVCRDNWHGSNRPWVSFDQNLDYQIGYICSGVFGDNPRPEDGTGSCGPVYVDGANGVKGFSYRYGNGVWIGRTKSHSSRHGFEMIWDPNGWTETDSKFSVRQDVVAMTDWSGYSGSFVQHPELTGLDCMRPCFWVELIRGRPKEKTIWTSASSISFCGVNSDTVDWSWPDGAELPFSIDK

O=C(O[C@@H]1Cc2c(O)cc(O)cc2O[C@@H]1c1cc(O)c(O)c(O)c1)c1cc(O)c(O)c(O)c1 [EGCG, (−)-epigallocatechin-3-gallate]
IC50 [1]: 35.95 µg/mL (≈ 78.4 µM)
Inhibition Rate (%) ([1]; 40 μg/ml): 54.96%
Inhibitory Rate (%) ([2]; 50 μg/ml, CPE, MDCK, H1N1): 56.85%
IC50 ([2]; CPE, MDCK, H1N1 cellular level): 42.05 µg/mL (≈ 91.7 µM)
CC50/IC50 ([2]; Therapeutic Index (TI)): >2.38

CCOC(=O)C1=C[C@@H](OC(CC)CC)[C@H](NC(C)=O)[C@@H](N)C1 [Oseltamivir]
inhibition at 0.4 µg/mL ([1]; 0.4 μg/ml, read-out: Inhibition Rate (%)): 93.1%

Values after ≈ are worked out from the molar mass of the structure shown.
